# Source: PubChem BioAssay AID1347417 (National Center for Advancing Translational Sciences (NCATS), 2020)
# Screen size: about 120,000 compounds; about 5,300 (4.4%) were called active. Inconclusive means that the source gave no clear call. Such entries were picked first, then a sample of the others. Calls follow the shape of the dose curve; as a rule, active = well fitted inhibition curve with a large enough effect; inconclusive = small, poorly fitted or top-dose-only effect; inactive = no such curve, though single readings can be large or run the other way. A potency beside an inconclusive call is a rough fit, not a confirmed value.
# Test: qHTS Primary assay for Inhibitors of Plasmodium falciparum Dd2 growth in vitro; also: nearly all actives have a fitted effect of over 65% in size;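 as to activity, negative = inhibition: plate controls were DMSO vehicle for no effect and reference drug for full effect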
# Conditions: P. falciparum Dd2 growth, SYBR Green, 72 h; activity, negative = inhibition: at 28.9 µM (top of the series) unless noted; series mostly up to 28.9 µM
# Procedure, shortened: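 Infected erythrocytes (Dd2, 0.3% parasitemia, 2.5% hematocrit final) are added to compound in RPMI-1640/Albumax II medium, grown 72 h at 37C in low oxygen, then lysed with saponin/Triton-X containing SYBR Green and read by fluorescence.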
# Potency is read from the fitted curve at half-maximal effect; tags tell the direction and shape of the fitted curve.
Structure (SMILES),Potency,outcome,"activity, negative = inhibition"
O=C(Nc1cc(Cl)cc(Cl)c1)c1ccc(F)c(S(=O)(=O)N2CCc3ccccc32)c1,active: 8.91 µM,,
COc1ccc(CCNC(=O)c2ccc3c(c2)N(Cc2c(F)cccc2Cl)C(=O)CS3)cc1OC,"inconclusive: 11.2 µM [inhibitor, single point]",,
COc1cccc(NC(=O)Cn2c(N3CCC(C)CC3)nc(C)cc2=O)c1,"inconclusive: 10 µM [inhibitor, single point]",,
Cc1cccc(N2CCN(C(=O)CCc3nnc4n(CC(C)C)c(=O)c5ccccc5n34)CC2)c1C,"inconclusive: 1.12 µM [inhibitor, partial curve]",,
COc1ccc(-c2cn3c(n2)sc2cc(C(=O)Nc4ccc(C)c(C)c4)ccc23)cc1,"inconclusive: 12.6 µM [inhibitor, partial curve, poor fit]",,
O=C(Cc1ccccc1)N(Cc1cccnc1)c1nc2c(F)cc(F)cc2s1,"inconclusive: 10 µM [inhibitor, single point]",,
Cc1ccc(NC(=O)Cn2c(C)cc3nc4n(c(=O)c32)CCCC4)cc1,"inconclusive: 7.08 µM [inhibitor, partial curve, poor fit]",,
CCc1noc(-c2cn(C3CCCN(C(=O)c4ccc(OC)c(F)c4)C3)nn2)n1 (centres undefined),"inconclusive: 3.16 µM [inhibitor, single point]",,
CN(CC1CCOC1)C(=O)c1cccc(Br)c1 (centres undefined),,inactive [at 5.79 µM],
Cc1nn2c(-c3cccc(NC(=O)c4ccccc4)c3)nnc2c2ccccc12,"inconclusive: 17.8 µM [inhibitor, single point]",,
CNC(=O)[C@H]1C[C@H](Oc2cccnc2)CN1S(=O)(=O)Cc1ccccc1F,"inconclusive: 0.0708 µM [inhibitor, full curve, poor fit]",,
OCCC1CN(Cc2cc3c(cc2Cl)OCO3)CCN1Cc1ccccc1F (centres undefined),,inactive,
O=C1NCc2ccccc2CC12CCCN(CCCc1ccccc1)C2 (centres undefined),"inconclusive: 7.08 µM [inhibitor, partial curve]",,
COCCN1CCC(N2CCN(S(=O)(=O)c3ccc(C)c(C)c3)CC2)C1=O (centres undefined),,,inactive: -14%
COCCn1ncc(N2CCC(C(=O)N(C)Cc3ccc(N4CCN(C)CC4)cc3)C2)cc1=O (centres undefined),"inconclusive: 11.2 µM [inhibitor, single point]",,
Cc1ccc(-n2c(SCc3cccc(F)c3)nc3[nH]ncc3c2=O)cc1C,"inconclusive: 11.2 µM [inhibitor, single point]",,
CN(C)C(=O)c1ccc(CC2CCN(C(=O)CC3CCCCC3)CC2)cc1,"inconclusive: 10 µM [inhibitor, single point]",,
Cc1ccc(NC(=O)N2CCC(CCNC(=O)CC3CCCC3)CC2)cc1,"inconclusive: 17.8 µM [inhibitor, single point]",,
CCOC(=O)c1c(C)[nH]c(C)c1S(=O)(=O)N1CCC(C(=O)N2CCN(c3ccccc3F)CC2)CC1,,inactive,
COc1cc2c(cc1OCC1CC1)NC(=O)C21CCN(c2nc(C)cc(C)n2)CC1,"inconclusive: 1.78 µM [inhibitor, partial curve, poor fit]",,
COc1cccc(CC(=O)N2Cc3ccccc3OC3(CCN(C)CC3)C2)c1,"inconclusive: 2.24 µM [inhibitor, single point]",,
Cc1ccc2[nH]c(=O)c(CCC(=O)N3CCN(CC(C)C)CC3)cc2c1,"inconclusive: 3.55 µM [inhibitor, partial curve, poor fit]",,

Structure (SMILES),Potency,outcome,"activity, negative = inhibition"
COc1ccc(Cl)cc1NC(=O)c1cc(S(=O)(=O)NC2CCCCCC2)ccc1F,"inconclusive: 17.8 µM [inhibitor, single point]",,
COCCOC1CCOC2(CCN(C(=O)NCc3ccc(C)cc3)CC2)C1 (centres undefined),,,inactive: -20.5%
CN1C(=O)COC[C@@H]1[C@H](O)c1ccc(NC(=O)Nc2ccccc2)cc1,,,inactive: -16.7% [at 44.1 µM]
CCCCN1CCN(C(=O)c2cc(NC(=O)C3CCC3)cc3nc(C)ccc23)CC1,"inconclusive: 14.1 µM [inhibitor, single point]",,
O=C(Nc1ccc2ncnc(N3CCCC3)c2c1)c1ccc(Cl)s1,"inconclusive: 3.16 µM [inhibitor, single point]",,
CN(C)S(=O)(=O)N(CC(=O)NCCSCc1ccccc1)c1ccccc1,,,inactive: 23.6%
COc1cccc(CN2Cc3c(CN(C)Cc4ccccc4)nnn3CCC2=O)c1,active: 10 µM,,
COc1ccc(C(=O)Nc2ccc3c(c2)CN(Cc2cccc(OC)c2OC)C(=O)CO3)cc1OC,"inconclusive: 2.51 µM [inhibitor, single point]",,
Cc1cccc(-c2noc(CCC(=O)N3CCCC4(CCNCC4)CC3)n2)c1,"inconclusive: 7.94 µM [inhibitor, single point]",,
COc1ccc(OC)c(CNC(=O)c2cc3c(-c4ccc(OC)c(OC)c4)nn(C)c3s2)c1,"inconclusive: 15.8 µM [inhibitor, single point]",,
Cn1nc(C(=O)NCc2ccc(Cl)cc2)c2c1-c1ccccc1S(=O)(=O)C2,"inconclusive: 11.2 µM [inhibitor, single point]",,
CC(C)CCN1CC2(CCN(C(=O)C3CC34CCCC4)CC2)OC1=O (centres undefined),,,inactive: -9.18%
Cc1cccc(-n2ncc(C(=O)N3CCN(c4ccc(Cl)cc4)CC3)c2C2CCN(C(=O)OC(C)(C)C)CC2)c1,"inconclusive: 11.2 µM [inhibitor, single point]",,
COc1cccc(C2SCC(=O)Nc3c2c(C)nn3-c2ccc(C)c(Cl)c2)c1OC (centres undefined),"inconclusive: 17.8 µM [inhibitor, single point]",,
COc1cccc(NC(=O)N2CCN3C(=O)N(C)C[C@H]3C2)c1,,,inactive: -11.7% [at 44.1 µM]
COC(=O)c1ccc(OCC2c3cc(OC)c(OC)cc3CCN2C(=O)Cc2ccc(OC)cc2)cc1 (centres undefined),active: 10 µM,,
OCCOc1ccc(-c2c(-c3ccccc3)ncn2CCc2cccnc2)cc1,,,inactive: 9.82%
O=C(Cc1ccccc1)N1CCCC2(CC(c3ccccn3)=NO2)C1 (centres undefined),"inconclusive: 0.224 µM [inhibitor, full curve, poor fit]",,
O=C(CO)NC1CC(=O)N(Cc2ccccc2C(F)(F)F)C1 (centres undefined),,,inactive: 14.3%
CCc1ccc(Sc2cc(C(=O)NCc3cccc(OC)c3)c3ccccc3n2)cc1,"inconclusive: 12.6 µM [inhibitor, single point]",,
COc1ccc(NC(=O)C2CCCN(c3cnn(Cc4ccccc4)c(=O)c3)C2)cc1OC (centres undefined),"inconclusive: 17.8 µM [inhibitor, single point]",,
CC(=O)Nc1ccc(S(=O)(=O)N[C@H]2CO[C@H]3[C@@H]2OC[C@@H]3Nc2nccc(-c3ccco3)n2)cc1,"inconclusive: 17.8 µM [inhibitor, single point]",,

Structure (SMILES),Potency,outcome,"activity, negative = inhibition"
CCOc1cc(CN2CCOc3ccc(C(=O)NCc4ccc(C)cc4)cc3C2)ccc1O,"inconclusive: 11.2 µM [inhibitor, single point]",,
Cc1nn2c(c1-c1ccccc1OCc1ccccc1)N(Cc1ccccc1O)CCC2,"inconclusive: 2.51 µM [inhibitor, partial curve, poor fit]",,
O=C1NC(=NC2CCCC2)C2(CCN(CC3CCCCC3)C2)N1c1cc(F)cc(F)c1 (centres undefined),"inconclusive: 3.98 µM [inhibitor, partial curve, poor fit]",,
CCN(CC)c1cc(CCC(=O)N(C)Cc2ccccc2)ccn1,"inconclusive: 3.98 µM [inhibitor, partial curve, poor fit]",,
CCCCOc1ccc(-c2nn(-c3ccccc3)cc2C2NC(=O)NC(C)=C2C(=O)OCC)cc1 (centres undefined),"inconclusive: 1.12 µM [inhibitor, partial curve, poor fit]",,
COc1ccc(Cn2c(C3CCN(C(=O)c4cc(Cl)ccc4F)CC3)n[nH]c2=O)cc1,"inconclusive: 8.91 µM [inhibitor, single point]",,
O=c1ccc(-c2ccccc2)c2n1C[C@H]1C[C@@H]2CN(S(=O)(=O)c2cccs2)C1,"inconclusive: 35.5 µM [inhibitor, single point]",,
CCN(Cc1nc2ccccc2[nH]1)CC1CCCN(CCc2cccc(F)c2)C1 (centres undefined),"inconclusive: 5.62 µM [inhibitor, partial curve]",,
CCCC(=O)N1CCC(N2C[C@H](O)C[C@H]2C(=O)NCc2cccc(OC)c2)CC1,,,inactive: -23.3%
C[C@@H](NC(=O)N1CCOC[C@H]1c1ncc(-c2ccc(Cl)cc2)[nH]1)c1ccccc1,active: 12.6 µM,,
Cc1c(Cl)cccc1NC(=O)c1cccc(NC(=O)N2CCSc3ncccc32)c1,,inactive,
CCCc1noc(-c2cccn3c(CNC(=O)c4ccccc4OCC)nnc23)n1,"inconclusive: 1.26 µM [inhibitor, partial curve]",,
CCC(=O)N1CCc2sc(C(=O)NCc3cccs3)cc2C1,"inconclusive: 8.91 µM [inhibitor, partial curve]",,
Cc1nnnn1-c1cccc(C(=O)N[C@H]2C[C@@H]3OCC[C@H]23)c1,,,inactive: -5.56%
CCOC(=O)c1ccc(N2C(=O)c3[nH]nc(-c4ccc(C)cc4)c3C2c2cccc(F)c2)cc1 (centres undefined),active: 5.01 µM,,
O=C1CC(c2ccccc2)N(C(=O)CNC(=O)c2cc3ccccc3[nH]2)CCCCCN1 (centres undefined),"inconclusive: 7.08 µM [inhibitor, partial curve, poor fit]",,
CC(C)(C)CC(=O)N[C@@H]1C=C(C(=O)NCC(N)=O)C[C@@H](O)[C@@H]1O,,,inactive: -22% [at 44.1 µM]
COc1ccc(NC(=O)c2cnc3c(c2)N(C(=O)Cc2ccc(O)cc2)CCC3)cn1,,,inactive: 3.42% [at 44.1 µM]
Cc1ccc(C(=O)N2c3ccc(C)cc3C(C)(c3ccccc3)CC2(C)C)cc1 (centres undefined),"inconclusive: 17.8 µM [inhibitor, single point]",,
CCc1ccc(C(=O)c2cn(CC(=O)Nc3cccc(OC)c3)c3ccc(OC)cc3c2=O)cc1,active: 12.6 µM,,
